The campaign covered roughly 310,000 compounds. About 14,000 (4.5%) showed an effect of 50% or more. Effects have a minus sign here. This is one part of the list.
Target: human ether-à-go-go-related gene (hERG) potassium channel (human, UniProt Q12809)
Experiment: primary screen, population patch clamp on CHO cells stably expressing hERG
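Also: peak tail current of the secondary pulse compared with the same well before compound.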

Chain of human ether-à-go-go-related gene (hERG) potassium channel (Q12809 whole entry, looked up): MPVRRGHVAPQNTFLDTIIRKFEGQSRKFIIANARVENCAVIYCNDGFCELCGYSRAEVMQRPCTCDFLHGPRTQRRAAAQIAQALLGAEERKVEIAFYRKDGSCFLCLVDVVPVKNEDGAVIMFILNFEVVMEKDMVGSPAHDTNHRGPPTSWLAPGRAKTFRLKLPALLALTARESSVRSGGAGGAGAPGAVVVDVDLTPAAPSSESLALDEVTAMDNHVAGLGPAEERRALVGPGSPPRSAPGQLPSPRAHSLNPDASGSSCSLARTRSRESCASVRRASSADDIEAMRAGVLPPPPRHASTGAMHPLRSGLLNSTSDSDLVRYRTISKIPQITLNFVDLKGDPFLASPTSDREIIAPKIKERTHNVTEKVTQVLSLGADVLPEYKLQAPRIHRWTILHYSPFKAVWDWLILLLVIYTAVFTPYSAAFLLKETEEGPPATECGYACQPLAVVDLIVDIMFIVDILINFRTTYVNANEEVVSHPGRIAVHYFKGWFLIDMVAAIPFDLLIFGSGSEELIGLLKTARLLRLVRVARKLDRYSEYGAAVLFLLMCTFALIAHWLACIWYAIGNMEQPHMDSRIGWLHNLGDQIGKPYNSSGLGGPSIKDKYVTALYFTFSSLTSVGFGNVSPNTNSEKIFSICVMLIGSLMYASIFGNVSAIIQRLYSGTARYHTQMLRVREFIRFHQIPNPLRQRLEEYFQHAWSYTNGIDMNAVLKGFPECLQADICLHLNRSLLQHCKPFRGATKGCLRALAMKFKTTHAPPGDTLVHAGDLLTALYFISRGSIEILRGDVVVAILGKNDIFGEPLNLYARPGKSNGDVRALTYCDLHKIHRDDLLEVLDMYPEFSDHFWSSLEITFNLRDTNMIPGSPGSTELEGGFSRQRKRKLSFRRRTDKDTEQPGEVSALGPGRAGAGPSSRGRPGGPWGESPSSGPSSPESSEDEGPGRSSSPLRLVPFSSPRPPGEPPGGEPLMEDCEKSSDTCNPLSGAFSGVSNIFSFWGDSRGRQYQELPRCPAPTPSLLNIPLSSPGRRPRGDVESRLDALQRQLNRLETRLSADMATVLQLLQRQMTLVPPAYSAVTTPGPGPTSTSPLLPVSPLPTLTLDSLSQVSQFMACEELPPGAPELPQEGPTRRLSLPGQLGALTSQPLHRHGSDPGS

Point of comparison: `CCc1cccc(C)c1NC(=O)c1cc(=O)[nH]c2ccc(S(=O)(=O)N3CCOCC3)cc12`, “hERG current change (%, negative = inhibition) at 10uM” value 0.437%. Against it:
- CCOC(=O)c1sc(C)c2c(=O)n(CC(=O)c3ccc(Br)cc3)nnc12 — lower, -6.99%
- O=C(Nc1ccncc1)c1cc2ccccc2cc1O — higher, 5.89%
- COc1ccc(S(=O)(=O)N2CCN(C(=O)Cc3cccs3)CC2)cc1 — lower, -1.02%
- CCN(CC)CCCNC(=O)C1CCCN(c2nnc(N3CCCC3=O)s2)C1 (centres unmarked) — lower, -5.62%
- COc1ccc(C(=O)C2CCCN(C3Cc4ccccc4C3)C2)c(OC)c1 (centres unmarked) — lower, -76.5%
- COc1ccc(NC(=S)N2CCN(c3ncccn3)CC2)c(OC)c1 — higher, 7.96%
- O=C1CCc2cc(S(=O)(=O)NCCC(=O)NC3CCN(Cc4ccccc4)CC3)ccc2N1 — higher, 3.92%
- Cc1sc(NC(=O)c2ccc3ncsc3c2)c(C(N)=O)c1C — higher, 17.7%
- C/C(CC(=O)Nc1ccccc1Br)=N\NC(=O)C(=O)N1CCCC1 — lower, -1.55%
- C/C(=N\NC(=O)Cc1ccccc1)c1cccnc1 — higher, 15.3%
- OC1(c2ccc(Br)cc2)CN(c2ccccc2)C2=[N+]1CCS2.[Br-] (centres unmarked) — lower, -19.5%
- CCOc1ccc(S(=O)(=O)N2CCN(C(=S)NCc3ccccc3)CC2)cc1 — lower, -18.2%
- Cc1cc(NC(=O)CSc2ccc3nnc(-c4ccccc4)n3n2)no1 — lower, -22.5%
- CCN(CC)c1ccc(NC(=O)c2ccc3c(c2)OCO3)cc1 — higher, 9.22%
- COc1ccc(N/C=C/C(=O)c2ccc(Cl)cc2)cc1 — lower, -13.7%
- CCN(CC)CCNC(=O)c1ccc(Sc2ccc(Cl)cc2)c(NC(C)=O)c1 — lower, -61.7%
- CCn1c(CNc2ccccc2Cl)nnc1SCC(=O)NCc1ccccc1 — lower, -27%
- O=S(=O)(NCC1CCCO1)c1ccc(-c2ccc(Cl)cc2)cc1 (centres unmarked) — higher, 2.48%
- C#CCOc1ccc2c(c1)c(C(C)=O)c(C)n2Cc1ccccc1 — higher, 1.69%
- C=C1CCN(C(CC(C)C)C(=O)OC)S(=O)(=O)c2ccccc21 (centres unmarked) — lower, -7.08%
- CC(=O)C1=C(c2ccccc2)OC(N)=C(C#N)C1c1ccccc1F (centres unmarked) — lower, -2.9%
- Cc1noc(C)c1COc1cccc(C(=O)Nc2ccccc2N2CCOCC2)c1 — lower, -2.8%
- O=C(COC(=O)c1cnccn1)Nc1ncc(Cl)cc1Cl — higher, 7.93%
- Cc1oc(/C=N/NC(=O)CN(c2ccccc2Cl)S(C)(=O)=O)cc1Br — lower, -13.8%
- C(/CCc1ccccc1)=N\Nc1nc2ccccc2[nH]1 — lower, -26.6%
- CC(C)COc1ccc(C(=O)Nc2ccccc2[N+](=O)[O-])cc1 — higher, 15.2%
- COc1cc(S(=O)(=O)N(Cc2ccccn2)Cc2ccco2)ccc1-n1cnnn1 — lower, -32.4%
- CCOC(=O)C1C(=O)OC(C)(C)C1C(C)C(=O)c1ccc(OC)cc1 (centres unmarked) — lower, -4.81%
- O=S(=O)(Nc1cccnc1)c1cccs1 — higher, 18.1%
- CCc1ccc(C(=O)N2CCCC2)s1 — higher, 14.2%
- Cc1ccc(OCC(=O)NCCCNC(=O)c2ccccn2)cc1 — higher, 2.23%
- CCOC(=O)Cn1c(C)cc(=O)c2cccc(C)c21 — lower, -9.34%
- O=C(NC(=S)N1CCN(c2nc(-c3ccccc3)cs2)CC1)c1cccnc1 — lower, -1.93%
- O=C1CS/C(=N/N=C/c2ccccc2OS(=O)(=O)c2ccccc2)N1 — lower, -4.05%
- CCN(CC(=O)NCc1cccs1)C(=O)c1ccccc1Cl — lower, -0.291%
- CCOC(=O)C1CCN(c2ncnc3c2nnn3Cc2ccccc2Cl)CC1 — lower, -29.8%
- CCCN1CCC(CCOc2ccccc2)(C(=O)OCC)CC1 — lower, -58.5%
- CC1CCCCN1C(=O)c1ccc(N2CC3CC(C2)c2cccc(=O)n2C3)c([N+](=O)[O-])c1 (centres unmarked) — lower, -15.9%
- COC(=O)CC(C(=O)Nc1cc(C(=O)OC)cc(C(=O)OC)c1)N1CCN(C)CC1 (centres unmarked) — higher, 11.5%
- COc1ccc(S(=O)(=O)N(C)C(C)CCc2ccco2)cc1 (centres unmarked) — lower, -12.3%
- COc1ccc(C(O)Cn2c(=N)n(CCCN(C)C)c3ccccc32)cc1.Cl (centres unmarked) — lower, -13%
- O=c1c2cn[nH]c2[nH]c(=S)n1-c1ccccc1 — higher, 20.1%
- O=C(NCCCNc1ccc(C(F)(F)F)cc1[N+](=O)[O-])c1ccc(F)cc1 — lower, -19.9%
- CC(C)CNC(=O)CN1C(=O)NC2(CCCc3ccccc32)C1=O (centres unmarked) — higher, 15.3%
- O=C1CSC(=Nc2cccc(Cl)c2Cl)N1Cc1cccnc1 — lower, -42.8%
- CCc1noc(C)c1C(=O)NNC(=O)COc1ccc(C)cc1 — higher, 11%
- COCCN(C(=O)CCC(=O)Nc1ccccn1)C(C(=O)NC(C)(C)C)c1ccc(OC)cc1 (centres unmarked) — higher, 11.3%
- O=C(Nc1ccc2c(c1)OCCO2)c1cccc2nc3ccccc3nc12 — higher, 19.1%
- COc1cccc(OC)c1C(=O)Nc1cc(Cl)ccc1N1CCOCC1 — lower, -36.3%
- O=C1C=C(c2cc3ccccc3o2)C[C@@H](c2ccc(F)cc2)C1 — higher, 2.02%
- CC(=O)N1CSCC1C(=O)NNS(=O)(=O)c1cccc(C(F)(F)F)c1 (centres unmarked) — higher, 8.58%
- C=CCNC(=O)c1c(CSc2ccc(Cl)cc2)noc1C(=O)NCCC — lower, -10.8%
- Cc1ccc(N(C)C(=O)Oc2ccc(C(=O)c3ccc(Cl)cc3)cc2)cc1 — higher, 5.57%
- COc1cc(OC)nc(Oc2ccc(N)c(C)c2)n1 — lower, -1.88%
- COc1cc(/C=N/N=C2\CC3CCC2(C)C3(C)C)ccc1O (centres unmarked) — lower, -17.6%
- CCCn1c(C)cc(/C=C(\C#N)C(=O)OCC(=O)Nc2cc(OC)c(OC)c(OC)c2)c1C — lower, -10.2%
- CCOC(=O)CNC(=O)Cn1c(C)cc2ccccc2c1=O — higher, 18.7%
- O=C(CSc1nc(C2CCCCC2)nc2ccccc12)N1CCCC1 — lower, -12.6%
- CC(C)CCN1CCN(Cc2cc3ccccc3[nH]2)CC1CCO (centres unmarked) — lower, -22.4%
- Cc1ccc[n+](CC(=O)Nc2c(Cl)cc(Cl)cc2Cl)c1.[Cl-] — higher, 11%
- Cc1ccc2nc(C)n(-c3ccc(F)cc3)c(=O)c2c1 — higher, 21.3%
- C[C@@H]1CCC[C@]2(O[C@H](CCO)C[C@H](O)[C@H]2O)O1 — higher, 5.55%
- CCOC(=O)CCc1c(C)n[nH]c1C — higher, 11.4%
- O=C(NCc1ccccc1Cl)c1ccc[nH]1 — lower, -14.4%
- Cc1ccc(CN2C3CCCC2CC(NC(=S)NCc2ccccc2)C3)cc1 (centres unmarked) — lower, -72.4%
- COc1cc(S(=O)(=O)N2CCC(C(N)=O)CC2)c(C)cc1C — higher, 14.2%
- COc1ccc(Br)cc1S(=O)(=O)Nc1ncn[nH]1 — higher, 13.4%
- CC(=O)NC1=NN(C(C)=O)C(c2ccc(C)cc2)S1 (centres unmarked) — higher, 34.1%
- CC(C)Cc1nnc(NC(=O)c2cc([N+](=O)[O-])ccc2N2CCOCC2)s1 — lower, -51.4%
- COc1ccc(NS(=O)(=O)c2cccc(C(=O)NNC(=O)CNC(=O)c3ccc(C)cc3)c2)cc1 — lower, -2.64%
- O=C(c1ccccc1Cc1ccccc1)N1CCN(S(=O)(=O)c2ccccc2[N+](=O)[O-])CC1 — lower, -13%
- OC(c1ccccc1)C(O)c1ccccc1 (centres unmarked) — higher, 20.2%
- Cc1onc(-c2ccccc2Cl)c1C(=O)NC(=S)Nc1ccc(C(C)C)cc1 — higher, 10.4%
- COc1ccc(CCNc2nc(-c3sc(C)nc3C)cs2)cc1OC.O=C(O)C(=O)O — lower, -28.4%
- CCOC(=O)C1CCN(C(=O)CSc2n[nH]c(=O)[nH]c2=O)CC1 — higher, 7.16%
- CS(=O)(=O)N(CC(=O)N1CCCC1)Cc1ccc(Cl)cc1 — lower, -4.75%
- COc1cccc(NC(=O)CSc2nc3c([nH]c4ccccc43)c(=O)n2C)c1 — higher, 16.4%
- CCOC(=O)C1(Cc2ccc(Cl)cc2)CCN(C2CCC2)CC1 — lower, -44.9%
- CCOCCCn1c(SC(C(=O)Nc2cc(C)ccc2C)c2ccccc2)nnc1-c1ccc(Cl)cc1 (centres unmarked) — lower, -4.82%
- CC(C)Oc1ccc(C2CC(=O)N(c3ccc(C(=O)O)cc3)C2=O)cc1 (centres unmarked) — higher, 11.8%
- Cc1nn(C(C)(C)C)c(OC(=O)c2ccc3c(c2)OCO3)c1S(=O)(=O)c1ccccc1 — higher, 2.49%
- COc1ccc(C(=O)CC(=O)c2ccccc2O)cc1 — higher, 16.6%
- CCc1ccc(C(=O)N2CCN(c3ccc(NC(=O)c4cccnc4)cc3)CC2)cc1 — lower, -71.3%
- CC(=O)C1=C(C)OC(N)=C(C#N)C1c1cc2cc(C)c(C)cc2nc1Cl (centres unmarked) — lower, -2.94%
- Cc1ccc(/C([O-])=C(/C(=S)NCc2ccccc2)[n+]2ccccc2)cc1[N+](=O)[O-] — higher, 14.4%
- CCCCNc1nc(Nc2ccc(C)c(Cl)c2)c2cnn(C)c2n1 — higher, 15.3%
- CCCCCCC/C(C)=N/NC(=O)CC(=O)NCCc1ccccc1 — lower, -2%
- CCCS(=O)(=O)c1nc(S(=O)(=O)c2ccc(C)cc2)c(N2CCC(C)CC2)s1 — lower, -0.508%
